First the molecules themselves.
B1: PhoQ; a variant is named by its letters at X, in order, P23837 (parent)
chain: MKKLLRLFFPLSLRVRFLLATAAVVLVLSLAYGMVALIGYSVSFDKTTFRLLRGESNLFYTLAKWENNKLHVELPENIDKQSPTMTLIYDENGQLLWAQRDVPWLMKMIQPDWLKSNGFHEIEADVNDTSLLLSGDHSIQQQLQEVREDDDDAEMTHSVAVNVYPATSRMPKLTIVVVDTIPVELKSSYMVWSWFIYVLSANLLLVIPLLWVAAWWSLRPIEALAKEVRELEEHNRELLNPATTRELTSLVRNLNRLLKSERERYDKYRTTLTDLTHSLKTPLXXLQXXLRSLRSEKMSVSDAEPVMLEQISRISQQIGYYLHRASMRGGTLLSRELHPVAPLLDNLTSALNKVYQRKGVNISLDISPEISFVGEQNDFVEVMGNVLDNACKYCLEFVEISARQTDEHLYIVVEDDGPGIPLSKREVIFDRGQRVDTLRPGQGVGLAVAREITEQYEGKIVAGESMLGGARMEVIFGRQHSAPKDE

This is one part of the list. A value given as a limit tells only on which side of the number the result lay.

The variants in this experiment derive from B1. The experiment in a line: enrichment ratio after two sorts for PhoP signalling (ratio (wild type AVST 3.29)); higher = more functional. The note with it: with PhoP (E. coli).
Consider GWFE, for which the enrichment ratio was not above 0.25.
In the case of PPPI it was not above 0.25.
Under DFCS stands not above 0.25; under DLMP, not above 0.25.
In the case of NEDP it was not above 0.25; in that of YTKF, not above 0.25.
Turning to NCRE, the enrichment ratio was not above 0.25.
In the case of AFNV it was not above 0.25; in that of NNDV, not above 0.25.
Under PYCS stands not above 0.25.
Under SDKS stands not above 0.25; under EPPQ, not above 0.25; under ERYK, not above 0.25.
For PTMA, the enrichment ratio was not above 0.25.
Take QETD: the enrichment ratio was not above 0.25.
Under WKGN stands not above 0.25; under GILI, 8.37.
Under AFTA stands not above 0.25.
LCEK: the enrichment ratio was not above 0.25.
Under WTAT stands not above 0.25; under DHHT, not above 0.25.
As to NYNT, the enrichment ratio was not above 0.25.
Regarding GMAN, the enrichment ratio was not above 0.25.
In the case of APWG it was not above 0.25; in that of AHVN, not above 0.25.
Under RTTK stands not above 0.25.
SEPS: the enrichment ratio was not above 0.25.
Consider MSLK, for which the enrichment ratio was not above 0.25.
Regarding TIHC, the enrichment ratio worked out at 2.24.
In the case of LSWI it was 3.2; in that of RRHQ, not above 0.25; in that of VLVT, not above 0.25.
As for WALK, the enrichment ratio was not above 0.25.
In the case of WGLN it was not above 0.25.
For IYWN, the enrichment ratio is not above 0.25.
Under MKKS stands not above 0.25; under KLKL, not above 0.25; under FFIA, not above 0.25.
In the case of DYEY it was not above 0.25; in that of AHVL, 1.09; in that of QMHQ, 13.4.
In the case of HKIT it was not above 0.25.
As for TMIY, the enrichment ratio is not above 0.25.
Consider GRMD, for which the enrichment ratio is not above 0.25.
In the case of KGYH it was not above 0.25; in that of HPKN, not above 0.25; in that of YIVT, not above 0.25.
For the variant FVSR, the enrichment ratio is not above 0.25.
Take WRTW: the enrichment ratio was not above 0.25.
In the case of ERPA it was not above 0.25; in that of THLN, 3.21; in that of EHVY, not above 0.25.
With IMLR, the enrichment ratio is not above 0.25.
Under SSQN stands not above 0.25; under THFW, not above 0.25.
Regarding GCKD, the enrichment ratio is not above 0.25.
Under VETM stands not above 0.25.
Under HIAS stands not above 0.25; under MKTS, not above 0.25.
In the case of KVNS it was not above 0.25; in that of SHYY, not above 0.25.
As for GEMP, the enrichment ratio was not above 0.25.
In the case of QEAF it was not above 0.25; in that of YDLF, 2.45.
Consider LLYL, for which the enrichment ratio is not above 0.25.
Take SICE: the enrichment ratio was 1.33.
Regarding EGPV, the enrichment ratio is not above 0.25.
As for HWWG, the enrichment ratio was not above 0.25.
ANVA: the enrichment ratio was 3.53.
On to LNRL, for which the enrichment ratio is 0.355.
For the variant HMGQ, the enrichment ratio was not above 0.25.
As to PWVY, the enrichment ratio is not above 0.25.
In the case of QVGM it was 0.458.
In the case of NKIF it was not above 0.25; in that of WFPE, not above 0.25.
Under RIET stands not above 0.25; under KDMY, not above 0.25.
Take QSGS: the enrichment ratio worked out at 7.64.
Under RIEV stands not above 0.25; under TCSK, 13.7; under ANRW, not above 0.25.
Under PVYA stands not above 0.25.
Regarding VHTH, the enrichment ratio is not above 0.25.
On to NHKN, for which the enrichment ratio is not above 0.25.
Under HFYS stands not above 0.25.
Under LKCA stands not above 0.25; under HHYK, not above 0.25; under MLTF, 1.58.
In the case of SASI it was 6.84; in that of YFQC, not above 0.25.
For the variant LILR, the enrichment ratio came to 0.431.
Consider MADQ, for which the enrichment ratio is not above 0.25.
Take QLYQ: the enrichment ratio turned out to be 2.56.
Under FIEP stands not above 0.25; under QDCT, not above 0.25; under LIAC, not above 0.25.
Under PHFN stands not above 0.25; under SPHK, not above 0.25.
In the case of KPSS it was not above 0.25.
As for YMRG, the enrichment ratio was not above 0.25.
Take QSPR: the enrichment ratio was not above 0.25.
Regarding QKVI, the enrichment ratio is not above 0.25.
With RLPE, the enrichment ratio is not above 0.25.
Under SIFS stands not above 0.25; under KQLV, not above 0.25.
As to WYKM, the enrichment ratio was not above 0.25.
With TCRP, the enrichment ratio was not above 0.25.
Under AYYL stands not above 0.25; under VFHC, not above 0.25; under TLRI, 0.734.
In the case of DWMP it was not above 0.25.
In the case of RDSF it was not above 0.25; in that of NQWV, not above 0.25.
On to LYHE, for which the enrichment ratio was not above 0.25.
Under PCDS stands not above 0.25; under KTML, not above 0.25.
As for THFC, the enrichment ratio is not above 0.25.
For KLSM, the enrichment ratio is not above 0.25.
In the case of MSMI it was 23.5; in that of HSWN, not above 0.25; in that of KMWL, not above 0.25.
On to KMLP, for which the enrichment ratio is not above 0.25.
Under VDEY stands not above 0.25; under DLTH, not above 0.25; under FWSP, not above 0.25.
In the case of PCHW, the enrichment ratio is not above 0.25.
Under AGKL stands not above 0.25.
Consider QTGV, for which the enrichment ratio is not above 0.25.
Under DANT stands not above 0.25.
As for ALGK, the enrichment ratio was not above 0.25.
Under EQCR stands not above 0.25; under AYLD, not above 0.25.
With IYGW, the enrichment ratio was not above 0.25.
Under PLAM stands not above 0.25; under IDQC, not above 0.25.
In the case of YLCD it was 0.253; in that of EMSF, not above 0.25.
Consider KQTW, for which the enrichment ratio is not above 0.25.
Under SKCD stands not above 0.25; under VQSS, not above 0.25.
In the case of YCLY it was not above 0.25.
Under TIQD stands 6.42.
For the variant QCWS, the enrichment ratio was found to be 0.731.
In the case of LEFA it was 1.62; in that of TRCD, 6.93; in that of IYPH, not above 0.25.
Under HASC stands not above 0.25.
Take YDRC: the enrichment ratio was not above 0.25.
Consider SNGH, for which the enrichment ratio turned out to be 23.3.
LAKT: the enrichment ratio was not above 0.25.
Under WHIW stands not above 0.25.
Consider KPCP, for which the enrichment ratio was not above 0.25.
Under VPQM stands not above 0.25.

For the origin of these results see a collection of fitness landscapes (doi:10.1126/science.1257360).
